Here are results for 42 compounds from ChEMBL document CHEMBL4888484, “Replenishing the malaria drug discovery pipeline: Screening and hit evaluation of the MMV Hit Generation Library 1 (HGL1) against asexual blood stage Plasmodium falciparum ,using a nano luciferase reporter read-out” (2022).

Structures are written as SMILES. Screen size: about 150,000 compounds; about 540 (0.36%) showed an effect of 50% or more. The list shows a part of the results.

The test system of this test is Plasmodium falciparum. Description: Primary screen in NF54 nanoGlo assay, in single point, at 2uM, 72h; a lower Z score goes with more inhibition. In kind it is functional, Erythrocyte. The note with it: timepoint 72 hour.
A word on the % Inhibition: it is the drop in the measured response relative to a control, in per cent. In the case of `CC(C)[C@@H](CO)NC(=O)Nc1c(C(F)(F)F)nn(C)c1Cl`, the “% Inhibition” value was found to be 14% and the Z score is -1.79.
Take `Cc1ccc2nc(Cc3ccccc3)c(NC(=O)c3cccc(Cl)c3)n2c1`: the “% Inhibition” value is -11% and the Z score worked out at 1.5.
The corresponding values for `Cc1nnc(CNS(=O)(=O)c2cccc(C(=O)Nc3cccnc3)c2)o1` are -24% and 2.11.
In the same order, the values of `C[C@H]1COc2ccc(CN3CCCC3)cc2CN1C(=O)C1CCC1` are -14% and 1.21.
In the case of `O=C1c2cccnc2CN1CCC(c1ccccc1)c1ccccc1`, the “% Inhibition” value is reported as -14% and the Z score is 1.31.
The corresponding values for `COc1cncc(C(=O)N2CC[C@@H](C(F)(F)F)n3nc(C)cc32)n1` are -6% and 1.25.
As to `COC(=O)c1cc(CNC(=O)c2cncs2)cc(NS(=O)(=O)c2ccc(F)cc2)c1`, the “% Inhibition” value is on record as 1% and the Z score is given as -0.08.
Turning to `CCCc1c(C(=O)Nc2ccc(F)c(N3CCCC3=O)c2)[nH]c(C)c1C(=O)OC`, the “% Inhibition” value is given as 4% and the Z score was -0.66.
For `Cc1ccn(CC(=O)NC2CN(Cc3ccccc3)CC2C)c(=O)c1` (centres undefined), the “% Inhibition” value is recorded as -18% and the Z score was determined as 2.42.
In the same order, the values of `Cc1[nH]c(CN(C)Cc2cscn2)cc1C#N` are -8% and 1.36.
The corresponding values for `CCn1nc(C)c(CNC[C@@H](O)c2ccc(C(F)(F)F)cc2)c1C` are 17% and -3.25.
In the same order, the values of `CCCCN(CC)C(=O)CCCc1nc(C)cs1` are 0% and -0.02.
`CC(C)(CNC(=O)c1ccccc1-n1ccnn1)N1CCOCC1`: the “% Inhibition” value is recorded as 0% and the Z score is recorded as -0.03.
On to `COc1ncccc1CNC(=O)CC1CCN(C(C)=O)CC1`, for which the “% Inhibition” value is reported as 30% and the Z score was -3.35.
Regarding `O=C(c1ccccc1)C1C(c2ccccc2)N1C(=O)c1cccc(Cl)c1` (centres undefined), the “% Inhibition” value is listed as -7% and the Z score is on record as 0.84.
In the same order, the values of `O=C(Nc1ccccc1Oc1ccccc1Cl)[C@H]1CCCN(C(=O)c2cccs2)C1` are -13% and 1.9.
In the same order, the values of `O=C1[C@H]2CN(Cc3ccccc3)C[C@H]2C(=O)N1CCc1ccccc1` are 0% and 0.03.
The corresponding values for `COc1ccc2c(c1)OC[C@]1(CO)CN(Cc3noc(C4CCCC4)n3)C[C@H]21` are -25% and 2.39.
As for `Cc1c(NC(=O)c2cnn(Cc3ccccc3)c2)c(N2CCCC2)nn1C`, the “% Inhibition” value was -9% and the Z score turned out to be 1.67.
In the same order, the values of `CC[C@H](Nc1nc(-c2ccco2)nc2c1CCNCC2)c1ccnn1C` are 11% and -1.26.
`Cc1ncc(CN(C)C(=O)Nc2ccc(-n3cncn3)nc2)s1`: the “% Inhibition” value is -13% and the Z score stood at 2.5.
In the same order, the values of `O=C(NCCC1=CCCCC1)c1ccc(-n2nc3c(c2-c2cccc(C(F)(F)F)c2)CCC3)cc1` are -5% and 0.73.
In the same order, the values of `CCn1ncnc1-c1c(-c2ccccc2)ncn1Cc1nnc(C)o1` are -17% and 1.86.
The corresponding values for `Cc1ccc(NC(=O)Cn2cc(S(=O)(=O)N3CCOCC3)ccc2=O)c(C)c1` are -4% and 0.79.
Consider `O=C(Cn1nc(-c2ccncc2)ccc1=O)NCc1ccccc1`, for which the “% Inhibition” value is -19% and the Z score is on record as 2.41.
The corresponding values for `OC(CC1COCCN1)c1ccccc1` (centres undefined) are 35% and -0.57.
Regarding `Cc1csc(N(C(=O)c2cn3ccnc3s2)C2CC2)n1`, the “% Inhibition” value is on record as -6% and the Z score worked out at 0.61.
In the same order, the values of `CCNCc1cc(Br)c(OCC)c(Br)c1` are 29% and -3.84.
The corresponding values for `COc1ccccc1-n1nc(C(C)C)nc1Cn1nnnc1N` are -8% and 1.12.
`O=C(Nc1cn[nH]c1)[C@@H]1CN(Cc2nc3ccccc3c(=O)[nH]2)CCO1`: the “% Inhibition” value is on record as -11% and the Z score is 1.72.
The corresponding values for `O=C(Nc1nc2ccccc2s1)c1ccc2c(c1)CCNCC2` are -5% and 0.75.
In the same order, the values of `CCOc1ccc(CNS(=O)(=O)c2ccc(C(=O)N3CCCC3)s2)cc1OC` are -9% and 1.76.
In the same order, the values of `COc1ccc(Cl)c(S(=O)(=O)NCCc2nc(-c3ccc(F)cc3)c[nH]2)c1` are -3% and 0.44.
Take `CC1CCN(C(=O)C(=O)N2CCN(c3nc(C(C)C)c4c(c3C#N)CCCC4)CC2)CC1`: the “% Inhibition” value is given as -1% and the Z score worked out at 0.12.
As to `CCN(CC)C(=O)Cn1cc(C(=O)N2CCN(Cc3ccc(OC)cc3)C(=O)C2)nn1`, the “% Inhibition” value was -11% and the Z score turned out to be 1.57.
The corresponding values for `COCC[C@H]1CN(Cc2ccc3c(c2)OCCO3)CCO1` are -8% and 1.17.
For the compound `CCOC(=O)c1cc(-c2ccccc2)n(NC(=O)COc2ccc(Cl)cc2)c1C`, the “% Inhibition” value is 39% and the Z score was -5.05.
Take `Cc1cc(CNC(=O)[C@@H]2CC3(CN(Cc4ccccc4)C3)CN2C)n(C)n1`: the “% Inhibition” value is -7% and the Z score is listed as 1.16.
For the compound `CC(=O)NCCOc1ccc(-c2nc(C)nn2-c2ccccn2)cc1`, the “% Inhibition” value is reported as -18% and the Z score was determined as 1.99.
As for `CC(=O)c1ccc(-n2cc(-c3ccccc3)cc2-c2ccccc2)cc1`, the “% Inhibition” value was 7% and the Z score is -0.93.
Turning to `CCC1(CC)CN(C(=O)CCS(C)(=O)=O)c2ccccc21`, the “% Inhibition” value is recorded as -5% and the Z score turned out to be 0.8.
In the same order, the values of `Cc1ccc(Cl)cc1NS(=O)(=O)N(C)C` are 4% and -0.83.
